Some of the results follow. These are further read-outs of the screen, such as a control signal, another cell line or another target. No call is given for them. Compounds called inactive in the main read-out are mostly missing here.

The target of the assay is Sphingosine 1-phosphate receptor 3 (Homo sapiens) (UniProt Q99500). Description: activators of S1P3 receptor signaling – cell-based, primary and confirmation, NFAT-BLA reporter, primary screen (AID 373). The following applies: S1P3 NFAT-BLA reporter cells, agonism, FRET ratio; measured here: confirmation screen, triplicate average; at 4.5 µM; stronger effect = higher value; relative to 1 µM S1P, basal subtracted. The method, boiled down: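 Assay system: CHO cells stably expressing human S1P3, Gα16 and NFAT-β-lactamase reporter. Timing: overnight plating, 4 h compound 37 °C, 2 h substrate RT. Signal: β-lactamase FRET emission ratio 460/535 nm. Measure: percent activation versus median 1 µM S1P response, basal-subtracted, per plate. Repeats: primary screen single test, confirmation screen in triplicate.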
Chain of UniProt Q99500 (Q99500 whole entry, looked up): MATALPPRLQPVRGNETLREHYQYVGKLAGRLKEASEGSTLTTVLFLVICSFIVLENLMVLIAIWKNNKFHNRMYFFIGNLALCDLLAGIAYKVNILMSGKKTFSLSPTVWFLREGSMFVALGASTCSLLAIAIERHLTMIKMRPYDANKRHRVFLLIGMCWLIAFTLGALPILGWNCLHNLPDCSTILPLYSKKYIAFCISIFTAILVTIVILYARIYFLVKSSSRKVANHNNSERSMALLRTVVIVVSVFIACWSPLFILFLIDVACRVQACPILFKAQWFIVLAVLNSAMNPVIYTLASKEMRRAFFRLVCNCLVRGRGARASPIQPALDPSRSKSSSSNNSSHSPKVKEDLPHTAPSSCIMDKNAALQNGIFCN
`O=C(NCc1ccco1)c1cc2ccc(O)cc2oc1=O`: the activation is 11.3%. In the case of `Cc1ccc(-c2cc(-c3ccc(Cl)cc3)c(C#N)c(N)n2)o1`, the activation was 7.8%. As for `Cc1cc(C)n(-c2nc(NCCO)c3c4c(sc3n2)CCCC4)n1`, the figure is 39.7%; as for `Cc1cc(C)n(-c2nc(NCC(C)O)c3c4c(sc3n2)CCCC4)n1` (stereo not given), 37%; as for `C=CCn1c(=O)c(C#N)cc2c(=O)n3ccccc3nc21`, 5.1%. As for `CC(C)n1c(=N)c(C(=O)NCCc2ccccc2)cc2c(=O)n3ccccc3nc21`, the figure is 10.8%; as for `CCCc1cc(C(=O)N(C2CCCCC2)C2CCCCC2)no1`, 46.1%; as for `COc1ccc(CCn2c(C)cc(C(=O)CSc3nnnn3C)c2C)cc1`, 9.6%. As for `CCCn1c(=O)c2ccccc2n2c(SCc3c(C(=O)OCC)oc4ccccc34)nnc12`, the figure is 13.8%. As for `Nc1c(C(=O)NCc2ccc3c(c2)OCO3)c2nc3ccccc3nc2n1CCCN1CCOCC1`, the activation was 15.7%. Consider `Cc1ccc(C(C)C)c(OCc2nc(-c3nonc3N)no2)c1`, for which the activation stood at 11.4%. As for `c1ccc(-c2nc3nonc3nc2-c2ccccc2)cc1`, the figure is 5.7%; as for `N#CCSc1nnc(-c2ccccc2)c(-c2ccccc2)n1`, 4.5%. As for `CCCSc1nc(N2CCOCC2)c2c(c1C#N)CCCC2`, the figure is 11.1%; as for `O=C(NC1=NCCS1)c1cc(-c2ccccc2)nn1-c1ccccc1`, 4.6%. The value for `OCCN1CCN(c2nc(-c3ccccc3)c3cc(Cl)ccc3n2)CC1` was 7.1%. Turning to `CCOc1ccc(-c2noc(-c3ccncc3)n2)cc1OCC`, the activation amounted to 5.7%. As for `Cn1c(=O)c2c(-c3ccccc3)n(C3CCCCC3)cc2n(C)c1=O`, the figure is 5.4%. As for `CCOc1ccc(-c2nc(-c3ccccc3)no2)cc1OCC`, the figure is 10.3%; as for `Clc1ccc2nc(N3CCNCC3)nc(-c3ccccc3)c2c1`, 11%; as for `CCOC(=O)c1cc2ccc(OC(=O)c3ccco3)cc2oc1=O`, 28.4%. The value for `Cc1cccn2c(=O)c3cc(C(=O)NC(C)c4ccccc4)c(=N)n(CCCn4ccnc4)c3nc12` (stereo not given) was 7.7%; that for `CCCCn1c(NC(=O)c2ccc(F)cc2)c(C#N)c2nc3ccccc3nc21` was 5.9%; that for `CC(Oc1ccccc1Br)C(=O)N1CCc2ccccc21` (stereo not given) was 10.7%. Consider `O=c1c2ccccc2nnn1CSc1nnc(C2COc3ccccc3O2)n1-c1ccccc1` (stereo not given), for which the activation amounted to 5.7%. The value for `Cc1ccc(NC(=O)CC2Nc3ccccc3NC2=O)cc1Cl` (stereo not given) was 9.2%. Regarding `O=C(Oc1ccc(-c2nnco2)cc1)N(c1ccccc1)c1ccccc1`, the activation was determined as 16.7%. `c1ccc(C(Cc2nc(-c3ccncc3)no2)c2ccccc2)cc1`: the activation was 35.1%.

Take `c1ccc(C(Cc2nc(-c3ccccn3)no2)c2ccccc2)cc1`: the activation amounted to 7.5%. As for `Nc1c(C(=O)NCCN2CCOCC2)c2nc3ccccc3nc2n1CCc1ccccc1`, the figure is 4.6%; as for `COc1ccc(CCn2c(N)c(C(=O)NCc3ccco3)c3nc4ccccc4nc32)cc1OC`, 4.4%; as for `CCSc1nc(N2CCOCC2)c2c(c1C#N)CCCC2`, 4.6%. Consider `c1ccc(-c2nnc(N3CCOCC3)nc2-c2ccccc2)cc1`, for which the activation stood at 30.5%.

For `CCCCC(=O)NC(Nc1nc(C2CC2)cs1)(C(=O)OCC)C(F)(F)F` (stereo not given), the activation was 6.5%. As for `CCOC(=O)C1=C(N)OC2=C(C(=O)CCC2)C1c1ccccc1OCC` (stereo not given), the figure is 15.1%; as for `Cc1ccc2nc3c(cc(C#N)c(=O)n3-c3nccs3)c(=O)n2c1`, 5.1%.

For the molecule `c1ccc(C(Cc2nc(-c3cccnc3)no2)c2ccccc2)cc1`, the activation turned out to be 16.3%. The value for `COc1ccccc1Oc1cc(C#N)c(C#N)cc1-n1nnc2ccccc21` was 20.5%; that for `Cc1onc(-c2c(Cl)cccc2Cl)c1C(=O)N1CCc2ccccc21` was 8.2%; that for `CCOc1ccc(-c2nc(-c3ccncc3)no2)cc1OCC` was 19.4%.

For the molecule `C/C(Cl)=C/Cn1c(N2CCCC2)nc2c1c(=O)n(C)c(=O)n2C`, the activation was 6.9%. The value for `COc1ccc(Nc2nc(Nc3ccc(OC)cc3)nc(-n3[nH]c(=O)c(C)c3C)n2)cc1` was 9.1%; that for `CCC(C)c1ccc2oc(-c3ccc(NC(=O)c4ncn[nH]4)cc3)nc2c1` (stereo not given) was 7.6%; that for `N=c1c(C(=O)NCc2ccco2)cc2c(=O)n3ccccc3nc2n1Cc1ccc(Cl)cc1` was 10%. As for `Cc1cccc2cc3c(NC(=O)c4ccccn4)nn(C)c3nc12`, the activation came to 4.7%. The value for `Cc1cc(C)n(-c2nc(NCc3cccnc3)c3c4c(sc3n2)COC(C)(C)C4)n1` was 15.6%; that for `Cc1cc(C)n(-c2nc(NCCCO)c3c4c(sc3n2)CCCC4)n1` was 46.8%. The value for `Cc1cc(C)nc(-n2nc(C)c(Sc3ccc(F)cc3)c2N)n1` was 57%. Consider `CC(=O)Oc1ccc2cc(-c3nc4ccccc4n3C)c(=O)oc2c1`, for which the activation was determined as 6.3%. The value for `Cc1cc(-n2c(=O)c(C#N)cc3c(=O)n4ccccc4nc32)no1` was 6.3%.

The values are drawn from PubChem BioAssay AID373 (The Scripps Research Institute Molecular Screening Center, 2006).
